{
  "source": "paper PMC9911399",
  "about": "“Two distinct binding modes provide the RNA-binding protein RbFox with extraordinary sequence specificity”",
  "binders": {"B1": {"name": "GUUUUCC (DNA:RNA)", "RNA": "GGGAGACCGGAAUUCAGAUUGUCCGUUUUCCUUAAAUCCCGUCGUAGCCACCA", "DNA 1": "CAATCTGAATTCCGGTCTCCC", "DNA 2": "TGGTGGCTACGACGGGATT"}, "B2": {"name": "CUUUAAU (DNA:RNA)", "RNA": "B1 RNA with G25C, U29A, C30A, C31U", "DNA 1": "CAATCTGAATTCCGGTCTCCC", "DNA 2": "TGGTGGCTACGACGGGATT"}, "B3": {"name": "AGCCACG (DNA:RNA)", "RNA": "B1 RNA with G25A, U26G, U27C, U28C, U29A, C31G", "DNA 1": "CAATCTGAATTCCGGTCTCCC", "DNA 2": "TGGTGGCTACGACGGGATT"}, "B4": {"name": "UUGUUAA (DNA:RNA)", "RNA": "B1 RNA with G25U, U27G, C30A, C31A", "DNA 1": "CAATCTGAATTCCGGTCTCCC", "DNA 2": "TGGTGGCTACGACGGGATT"}, "B5": {"name": "GGCACCG (DNA:RNA)", "RNA": "B1 RNA with U26G, U27C, U28A, U29C, C31G", "DNA 1": "CAATCTGAATTCCGGTCTCCC", "DNA 2": "TGGTGGCTACGACGGGATT"}, "B6": {"name": "AAUCAAA (DNA:RNA)", "RNA": "B1 RNA with G25A, U26A, U28C, U29A, C30A, C31A", "DNA 1": "CAATCTGAATTCCGGTCTCCC", "DNA 2": "TGGTGGCTACGACGGGATT"}, "B7": {"name": "GGUUGUC (DNA:RNA)", "RNA": "B1 RNA with U26G, U29G, C30U", "DNA 1": "CAATCTGAATTCCGGTCTCCC", "DNA 2": "TGGTGGCTACGACGGGATT"}, "B8": {"name": "CCUCAUC (DNA:RNA)", "RNA": "B1 RNA with G25C, U26C, U28C, U29A, C30U", "DNA 1": "CAATCTGAATTCCGGTCTCCC", "DNA 2": "TGGTGGCTACGACGGGATT"}, "B9": {"name": "CUGAGCA (DNA:RNA)", "RNA": "B1 RNA with G25C, U27G, U28A, U29G, C31A", "DNA 1": "CAATCTGAATTCCGGTCTCCC", "DNA 2": "TGGTGGCTACGACGGGATT"}, "B10": {"name": "AGAAAGG (DNA:RNA)", "RNA": "GGGAGACCGGAAUUCAGAUUGUCCAGAAAGGUUAAAUCCCGUCGUAGCCACCA", "DNA 1": "CAATCTGAATTCCGGTCTCCC", "DNA 2": "TGGTGGCTACGACGGGATT"}, "B11": {"name": "ACCUAAC (DNA:RNA)", "RNA": "B10 RNA with G26C, A27C, A28U, G30A, G31C", "DNA 1": "CAATCTGAATTCCGGTCTCCC", "DNA 2": "TGGTGGCTACGACGGGATT"}, "B12": {"name": "GUAGCGA (DNA:RNA)", "RNA": "B10 RNA with A25G, G26U, A28G, A29C, G31A", "DNA 1": "CAATCTGAATTCCGGTCTCCC", "DNA 2": "TGGTGGCTACGACGGGATT"}, "B13": {"name": "GAAACAG (DNA:RNA)", "RNA": "B10 RNA with A25G, G26A, A29C, G30A", "DNA 1": "CAATCTGAATTCCGGTCTCCC", "DNA 2": "TGGTGGCTACGACGGGATT"}, "B14": {"name": "AUCUAGG (DNA:RNA)", "RNA": "B10 RNA with G26U, A27C, A28U", "DNA 1": "CAATCTGAATTCCGGTCTCCC", "DNA 2": "TGGTGGCTACGACGGGATT"}, "B15": {"name": "ACUAACU (DNA:RNA)", "RNA": "B10 RNA with G26C, A27U, G30C, G31U", "DNA 1": "CAATCTGAATTCCGGTCTCCC", "DNA 2": "TGGTGGCTACGACGGGATT"}, "B16": {"name": "UGUACGC (DNA:RNA)", "RNA": "B10 RNA with A25U, A27U, A29C, G31C", "DNA 1": "CAATCTGAATTCCGGTCTCCC", "DNA 2": "TGGTGGCTACGACGGGATT"}, "B17": {"name": "UAUUCAA (DNA:RNA)", "RNA": "B1 RNA with G25U, U26A, U29C, C30A, C31A", "DNA 1": "CAATCTGAATTCCGGTCTCCC", "DNA 2": "TGGTGGCTACGACGGGATT"}, "B18": {"name": "UCUCUGC (DNA:RNA)", "RNA": "B1 RNA with G25U, U26C, U28C, C30G", "DNA 1": "CAATCTGAATTCCGGTCTCCC", "DNA 2": "TGGTGGCTACGACGGGATT"}, "B19": {"name": "UUGAAUU (DNA:RNA)", "RNA": "B10 RNA with A25U, G26U, A27G, G30U, G31U", "DNA 1": "CAATCTGAATTCCGGTCTCCC", "DNA 2": "TGGTGGCTACGACGGGATT"}, "B20": {"name": "UUCCUAA (DNA:RNA)", "RNA": "B1 RNA with G25U, U27C, U28C, C30A, C31A", "DNA 1": "CAATCTGAATTCCGGTCTCCC", "DNA 2": "TGGTGGCTACGACGGGATT"}, "B21": {"name": "AGGUCCC (DNA:RNA)", "RNA": "B1 RNA with G25A, U26G, U27G, U29C", "DNA 1": "CAATCTGAATTCCGGTCTCCC", "DNA 2": "TGGTGGCTACGACGGGATT"}, "B22": {"name": "CUGAUCA (DNA:RNA)", "RNA": "B1 RNA with G25C, U27G, U28A, C31A", "DNA 1": "CAATCTGAATTCCGGTCTCCC", "DNA 2": "TGGTGGCTACGACGGGATT"}, "B23": {"name": "CAUCUAU (DNA:RNA)", "RNA": "B1 RNA with G25C, U26A, U28C, C30A, C31U", "DNA 1": "CAATCTGAATTCCGGTCTCCC", "DNA 2": "TGGTGGCTACGACGGGATT"}, "B24": {"name": "CUAGGUA (DNA:RNA)", "RNA": "B10 RNA with A25C, G26U, A28G, A29G, G30U, G31A", "DNA 1": "CAATCTGAATTCCGGTCTCCC", "DNA 2": "TGGTGGCTACGACGGGATT"}, "B25": {"name": "UCGGAAG (DNA:RNA)", "RNA": "B10 RNA with A25U, G26C, A27G, A28G, G30A", "DNA 1": "CAATCTGAATTCCGGTCTCCC", "DNA 2": "TGGTGGCTACGACGGGATT"}, "B26": {"name": "GUGAACG (DNA:RNA)", "RNA": "B10 RNA with A25G, G26U, A27G, G30C", "DNA 1": "CAATCTGAATTCCGGTCTCCC", "DNA 2": "TGGTGGCTACGACGGGATT"}, "B27": {"name": "UAAUUCG (DNA:RNA)", "RNA": "B1 RNA with G25U, U26A, U27A, C31G", "DNA 1": "CAATCTGAATTCCGGTCTCCC", "DNA 2": "TGGTGGCTACGACGGGATT"}, "B28": {"name": "CAUGCAA (DNA:RNA)", "RNA": "B1 RNA with G25C, U26A, U28G, U29C, C30A, C31A", "DNA 1": "CAATCTGAATTCCGGTCTCCC", "DNA 2": "TGGTGGCTACGACGGGATT"}, "B29": {"name": "GUAGGCA (DNA:RNA)", "RNA": "B1 RNA with U27A, U28G, U29G, C31A", "DNA 1": "CAATCTGAATTCCGGTCTCCC", "DNA 2": "TGGTGGCTACGACGGGATT"}, "B30": {"name": "AUUCAAG (DNA:RNA)", "RNA": "B10 RNA with G26U, A27U, A28C, G30A", "DNA 1": "CAATCTGAATTCCGGTCTCCC", "DNA 2": "TGGTGGCTACGACGGGATT"}, "B31": {"name": "AAGUAGC (DNA:RNA)", "RNA": "B10 RNA with G26A, A27G, A28U, G31C", "DNA 1": "CAATCTGAATTCCGGTCTCCC", "DNA 2": "TGGTGGCTACGACGGGATT"}},
  "note": "Where a chain is given by its changes, count along the chain named. The list shows a part of the results.",
  "data": [
    {"biological_target": "T1, RBFOX1 RRM (Homo sapiens, UniProt Q9NWB1 109-208)", "T1 sequence": "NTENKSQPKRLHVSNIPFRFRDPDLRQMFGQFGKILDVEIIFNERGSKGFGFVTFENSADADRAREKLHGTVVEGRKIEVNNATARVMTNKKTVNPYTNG", "assay": "EMSA; HiTS-Eq, 1 nM pool, 10 min; buffer printed only for the single-RNA assays: 10 mM Tris pH 7.5, 150 mM NaCl, 3.4 mM EDTA, 0.001% NP-40, 30 C", "conditions": "tags: His6 N-terminal (pET28a); label: 5' 32P", "method_in_brief": "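Purified wild-type or mutant RbFox RRM at increasing concentrations was equilibrated with 1 nM of 5′-radiolabelled RNA carrying 7 randomized nucleotides for 10 min in 50 µL. Unbound RNA was separated by 8% native PAGE and sequenced. Relative association constants came from read-count changes of each RNA species compared with the control reaction, normalised to the cognate motif.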", "values": [
      {"binder": "B1", "binding signal": "0.0256 KA relative to UGCAUGU"},
      {"binder": "B2", "binding signal": "0.0018 KA relative to UGCAUGU"},
      {"binder": "B3", "binding signal": "0.00567 KA relative to UGCAUGU"},
      {"binder": "B4", "binding signal": "0.0121 KA relative to UGCAUGU"},
      {"binder": "B5", "binding signal": "0.0143 KA relative to UGCAUGU"},
      {"binder": "B6", "binding signal": "0.000661 KA relative to UGCAUGU"},
      {"binder": "B7", "binding signal": "0.0246 KA relative to UGCAUGU"},
      {"binder": "B8", "binding signal": "0.00564 KA relative to UGCAUGU"},
      {"binder": "B9", "binding signal": "0.0155 KA relative to UGCAUGU"},
      {"binder": "B10", "binding signal": "0.0121 KA relative to UGCAUGU"},
      {"binder": "B11", "binding signal": "0.000932 KA relative to UGCAUGU"},
      {"binder": "B12", "binding signal": "0.0119 KA relative to UGCAUGU"},
      {"binder": "B13", "binding signal": "0.00679 KA relative to UGCAUGU"},
      {"binder": "B14", "binding signal": "0.00742 KA relative to UGCAUGU"},
      {"binder": "B15", "binding signal": "0.00125 KA relative to UGCAUGU"},
      {"binder": "B16", "binding signal": "0.0109 KA relative to UGCAUGU"},
      {"binder": "B17", "binding signal": "0.00989 KA relative to UGCAUGU"},
      {"binder": "B18", "binding signal": "0.0167 KA relative to UGCAUGU"},
      {"binder": "B19", "binding signal": "0.0117 KA relative to UGCAUGU"},
      {"binder": "B20", "binding signal": "0.00248 KA relative to UGCAUGU"},
      {"binder": "B21", "binding signal": "0.00339 KA relative to UGCAUGU"},
      {"binder": "B22", "binding signal": "0.00698 KA relative to UGCAUGU"},
      {"binder": "B23", "binding signal": "0.000674 KA relative to UGCAUGU"},
      {"binder": "B24", "binding signal": "0.0093 KA relative to UGCAUGU"},
      {"binder": "B25", "binding signal": "0.0125 KA relative to UGCAUGU"},
      {"binder": "B26", "binding signal": "0.0163 KA relative to UGCAUGU"},
      {"binder": "B27", "binding signal": "0.0125 KA relative to UGCAUGU"},
      {"binder": "B28", "binding signal": "0.00451 KA relative to UGCAUGU"},
      {"binder": "B29", "binding signal": "0.0151 KA relative to UGCAUGU"},
      {"binder": "B30", "binding signal": "0.00061 KA relative to UGCAUGU"},
      {"binder": "B31", "binding signal": "0.0116 KA relative to UGCAUGU"}
    ]}
  ]
}
